Data: PubChem BioAssay AID504706 (National Center for Advancing Translational Sciences (NCATS), 2011)
Among all 320,000 compounds or so, about 200 (0.062%) were called active. This list was built around the results that the source calls inconclusive (neither active nor inactive); the mix of calls is not that of the screen. Calls follow the shape of the dose curve; as a rule, active = well fitted activation curve with a large enough effect; inconclusive = small, poorly fitted or top-dose-only effect; inactive = no such curve, though single readings can be large or run the other way. Potencies of inconclusive entries are left out as doubtful fits.

Assay: qHTS assay for re-activators of p53 using a Luc reporter; also: nearly all actives have a fitted effect of over 45% in size; as to activity change, positive = activation: % of control where 0% means no effect
Conditions: H1299 p53-A138V BP100-luciferase reporter, luminescence, 24 h; series mostly up to 92.2 µM; activity change, positive = activation: at the top concentration
In short: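 H1299 (p53-null), stable ts p53-A138V + BP100-Luc; 1000 cells/well, Opti-MEM/10% FBS; cpd 4 pt, 1:5; 24 h, 37 deg C, 5% CO2; detection reagent 10 min RT; luminescence.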
Potency is read from the fitted curve at half-maximal effect; tags tell the direction and shape of the fitted curve.

| Compound | activity change, positive = activation | Potency |
| --- | --- | --- |
| Cc1ccc(NC2CCCN(C(=O)CCN3CCCCO3)C2)cc1C (configuration not stated) | inactive: -2.18% |  |
| CCOC(=O)c1ccccc1NC(=O)c1cn(CC)c2nc(C)ccc2c1=O |  | inconclusive [activator, partial curve, poor fit] |
| Cc1ccc(C(=O)NC(=S)Nn2cnnc2)cc1 |  | inconclusive [activator, partial curve, poor fit] |
| CCC1=NN=C(c2ccc(F)cc2)C(c2c[nH]c3ccccc23)N1O (configuration not stated) |  | inconclusive [activator, single point] |
| COc1cccc(COc2ccc3c(C)cc(=O)oc3c2)c1 |  | inconclusive [activator, full curve, poor fit] |
| Cc1ccc(C)c(OCCn2cc(/C=C(\C#N)C(=O)NCc3cccs3)c3ccccc32)c1 | inactive: -4.69% |  |
| COc1ccc(C(=O)Nc2cccc(OC(=O)c3ccc(C)c(C)c3)c2)cc1 |  | inconclusive [activator, partial curve, poor fit] |
| N#CC(C#N)=Cc1ccc(-c2ccc(S(=O)(=O)N=C(N)N)cc2)o1 |  | inconclusive [activator, partial curve, poor fit] |
| Cc1cc2c(sc3c(C)ccc(C)c32)c(C)n1 | inactive: 4.63% |  |
| COc1ccc(C=NNC(=O)c2cc(C)oc2C)cc1O |  | inconclusive [activator, full curve, poor fit] |
| Cc1ccc(NC(=O)CC2Nc3ccccc3NC2=O)cc1Cl (configuration not stated) | inactive: -0.629% |  |
| O=C(NCc1c(F)cccc1F)c1cc(COc2c(F)cccc2F)on1 | inactive: -0.0684% |  |
| CO/N=C/c1ccc(Oc2ccc([N+](=O)[O-])cc2[N+](=O)[O-])c(OC)c1 |  | inconclusive [activator, single point] |
| COc1ccc(C(=O)n2c(-c3ccco3)nc3ccccc32)cc1 |  | inconclusive [activator, partial curve, poor fit] |
| Cc1cc(F)ccc1S(=O)(=O)N1CCCOC1CNC(=O)C(=O)NC1CCCCC1 (configuration not stated) |  | inconclusive [activator, single point] |
| C=CCn1c(O)c(N=Nc2ccccc2O)c2ccccc21 |  | inconclusive [activator, full curve, poor fit] |
| O=C(N/N=C/c1c(Cl)cccc1Cl)c1n[nH]c2c1CCCC2 |  | inconclusive [activator, full curve, poor fit] |
| Cc1c(-c2nc3ccccc3[nH]2)cnn1C |  | inconclusive [activator, partial curve, poor fit] |
| N/C(=N\OC(=O)/C=C/c1ccc(Br)cc1)c1ccccn1 |  | inconclusive [activator, partial curve, poor fit] |
| COC(=O)c1[nH]c2ccc(Cl)cc2c1NC(=O)C1CC1 | inactive: -16.2% |  |
| Cc1ccc(Nc2nc(CSc3nnc(-c4ccccc4)n3C)cs2)cc1 |  | inconclusive [activator, partial curve, poor fit] |
| CC(C)(C)C1CCC(OCC(O)CN2CCN(Cc3ccccc3)CC2)CC1 (configuration not stated) |  | inconclusive [activator, partial curve, poor fit] |
| Cc1ccc2nc(C)cc(NCCO)c2c1 |  | inconclusive [activator, full curve, poor fit] |

| Compound | activity change, positive = activation | Potency |
| --- | --- | --- |
| CC(C)c1c(C(=O)N/N=C/c2cccc3ccccc23)nnn1-c1nonc1N | inactive: 0.0416% |  |
| Cc1cccc(NC(=O)c2cccc(N3C(=O)C4CCC(C)CC4C3=O)c2)c1C (configuration not stated) |  | inconclusive [activator, single point] |
| Cn1cccc1C(=O)N/N=C/c1c(Cl)cccc1Cl |  | inconclusive [activator, full curve, poor fit] |
| Cc1nc(NC(=S)NC(=O)c2cccs2)sc1C(=O)N(C)C |  | inconclusive [activator, single point] |
| CCCN1CCC(=O)N(CCSc2ccc(C)cc2)CC1 |  | inconclusive [activator, single point] |
| O=C(NCCCn1ccnc1)C(=O)Nc1ccccc1 |  | inconclusive [activator, full curve, poor fit] |
| CCCc1cc(=O)n2[nH]c(-c3ccc(Br)cc3)cc2n1 |  | inconclusive [activator, full curve, poor fit] |
| Cn1c(SCc2cccnc2)nnc1-c1c[nH]c2ccccc12 |  | inconclusive [activator, single point] |
| [O-][n+]1onc2c1CCc1nnc(-c3ccccc3)cc1-2 |  | inconclusive [activator, partial curve, poor fit] |
| O=C(CSc1ncnc2c(-c3ccc(Cl)cc3)nsc12)c1ccccc1 |  | inconclusive [activator, partial curve, poor fit] |
| Cc1ccc(-c2cc(C(=O)N/N=C/c3c[nH]c4ccccc34)[nH]n2)cc1 |  | inconclusive [activator, full curve] |
| CC(=O)N/C(=C\c1ccccc1)C(=O)OCC(=O)NC1CCS(=O)(=O)C1 (configuration not stated) | inactive: -1.39% |  |
| CCN1C[C@@H]2[C@@H]3C(=O)N(Cc4ccccc4)C(=O)[C@@H]3[C@](Cc3ccccc3)(C(=O)OC)N2C1=NC1CCCCC1 | inactive: -5.11% |  |
| CCOCCOC(=O)c1[nH]c2c(c1C)C(=O)CC(c1cccs1)C2 (configuration not stated) | inactive: 3.16% |  |
| O=C(Nc1ccccc1Br)c1cc(=O)c2ccccc2o1 |  | inconclusive [activator, full curve, poor fit] |
| O=C(/C=C/c1ccccc1)NC(NC(=S)Nc1cc(Cl)ccc1Cl)C(Cl)(Cl)Cl (configuration not stated) | inactive: -4.51% |  |
| c1ccc2c(C3=NNC(=NC4CC4)SC3)c[nH]c2c1 |  | inconclusive [activator, partial curve, poor fit] |
| COc1ccc(NC(=O)c2[nH]c(C)c(C(C)=O)c2C)cc1Cl |  | inconclusive [activator, partial curve, poor fit] |
| Cc1cccc(N(C)S(=O)(=O)c2ccc3[nH]cc(C(=O)N4CCOCC4)c(=O)c3c2)c1 | inactive: 11.7% |  |
| CCC1(C)Cc2nc3[nH]c(=S)n(-c4ccc(C)cc4)c(=O)c3cc2CO1 (configuration not stated) |  | inconclusive [activator, single point] |
| CC(=O)NCCc1ccc(C(=O)COC(=O)c2ccco2)cc1 |  | inconclusive [activator, partial curve] |
| CCOC(=O)c1cnc2ccc(Cl)cc2c1N1CCN(C)CC1 |  | inconclusive [activator, partial curve, poor fit] |
| Oc1c(Br)cc(/C=N/Nc2nncc3ccccc23)cc1Br |  | inconclusive [activator, partial curve, poor fit] |

| Compound | activity change, positive = activation | Potency |
| --- | --- | --- |
| COc1ccc(/C=C2\CCc3ccccc3C2=O)cc1CN1CCOCC1 |  | inconclusive [activator, single point] |
| Cc1ccc(SCC(=O)Nc2ccc(N3CCN(C)CC3)c(F)c2)c(C)c1 |  | inconclusive [activator, single point] |
| O=C(Nc1nc(-c2ccc(S(=O)(=O)N3CCCCCC3)cc2)cs1)c1ccccc1 | inactive: -3.33% |  |
| CCCC(=O)Nc1cccc(NC(=O)c2ccc(C)c([N+](=O)[O-])c2)c1 | inactive: -6.09% |  |
| CCN(CC)CCN(C(=O)c1ccc(C(=O)c2ccccc2)cc1)c1nc2c(OC)cccc2s1 |  | inconclusive [activator, partial curve, poor fit] |
| O=C(c1ccc2c(c1)OCO2)N1CCCc2ccccc21 |  | inconclusive [activator, partial curve, poor fit] |
| O=C(Nc1ccc(Cl)cc1Cl)C1=Cc2ccccc2OC1 |  | inconclusive [activator, partial curve, poor fit] |
| Cc1ccc(S(=O)(=O)NCC(=O)N(CC(=O)NC2CCCCC2)Cc2ccco2)cc1 |  | inconclusive [activator, partial curve, poor fit] |
| COc1ccc(CC(=O)NCc2n[nH]c(=S)n2-c2ccc(F)cc2)cc1 |  | inconclusive [activator, single point] |
| O=C(CSc1nc2ccc(Nc3nc(N4CCOCC4)nc(N4CCOCC4)n3)cc2s1)Nc1ccccc1Cl | inactive: 6.67% |  |
| Cc1cccc(NC(=O)Cn2nnc(-c3ccc(CN4CCCC4)cc3)n2)c1C | inactive: 0.18% |  |
| Nc1ncnc2c1cnn2-c1ccccc1 |  | inconclusive [activator, partial curve, poor fit] |
| CC1CCCN(c2ccc([N+](=O)[O-])cc2C(=O)c2ccccc2)C1 (configuration not stated) | inactive: 3.6% |  |
| O=C(O)CC1(O)C(=O)N(Cc2ccccc2)c2ccccc21 (configuration not stated) | inactive: 1.31% |  |
| COc1cccc(NC(=S)NCCN2CCOCC2)c1 | inactive: -3.06% |  |
| O=C(CCC1CCCC1)Nc1ccc(OCC(=O)N2CCOCC2)cc1 |  | inconclusive [activator, full curve, poor fit] |
| CCOc1ccc(NC(=O)CCc2c(C)nn(-c3ccc(N4CCCCC4)nn3)c2C)cc1 |  | inconclusive [activator, full curve, poor fit] |
| C/C(=N\NC(=O)c1nn(C)c(C)c1Br)c1ccc(NC(=O)C2CCCC2)cc1 | inactive: 22.6% |  |
| COc1cccc(NC(=O)COc2ccc(C(=S)N3CCN(C)CC3)cc2OC)c1 | inactive: -11.3% |  |
| O=C(CSc1nnc(Nc2ccccc2)s1)NCCN1C(=O)CSC1=O |  | inconclusive [activator, single point] |
| Cc1ccc2c(COC(=O)c3n[nH]c4ccccc34)cc(=O)oc2c1 |  | inconclusive [activator, single point] |
